Results on 5 molecules are retold here after paper PMC1141268.

Amino acid sequences for entries named in this document (tags omitted).
UniProt Q32KD4: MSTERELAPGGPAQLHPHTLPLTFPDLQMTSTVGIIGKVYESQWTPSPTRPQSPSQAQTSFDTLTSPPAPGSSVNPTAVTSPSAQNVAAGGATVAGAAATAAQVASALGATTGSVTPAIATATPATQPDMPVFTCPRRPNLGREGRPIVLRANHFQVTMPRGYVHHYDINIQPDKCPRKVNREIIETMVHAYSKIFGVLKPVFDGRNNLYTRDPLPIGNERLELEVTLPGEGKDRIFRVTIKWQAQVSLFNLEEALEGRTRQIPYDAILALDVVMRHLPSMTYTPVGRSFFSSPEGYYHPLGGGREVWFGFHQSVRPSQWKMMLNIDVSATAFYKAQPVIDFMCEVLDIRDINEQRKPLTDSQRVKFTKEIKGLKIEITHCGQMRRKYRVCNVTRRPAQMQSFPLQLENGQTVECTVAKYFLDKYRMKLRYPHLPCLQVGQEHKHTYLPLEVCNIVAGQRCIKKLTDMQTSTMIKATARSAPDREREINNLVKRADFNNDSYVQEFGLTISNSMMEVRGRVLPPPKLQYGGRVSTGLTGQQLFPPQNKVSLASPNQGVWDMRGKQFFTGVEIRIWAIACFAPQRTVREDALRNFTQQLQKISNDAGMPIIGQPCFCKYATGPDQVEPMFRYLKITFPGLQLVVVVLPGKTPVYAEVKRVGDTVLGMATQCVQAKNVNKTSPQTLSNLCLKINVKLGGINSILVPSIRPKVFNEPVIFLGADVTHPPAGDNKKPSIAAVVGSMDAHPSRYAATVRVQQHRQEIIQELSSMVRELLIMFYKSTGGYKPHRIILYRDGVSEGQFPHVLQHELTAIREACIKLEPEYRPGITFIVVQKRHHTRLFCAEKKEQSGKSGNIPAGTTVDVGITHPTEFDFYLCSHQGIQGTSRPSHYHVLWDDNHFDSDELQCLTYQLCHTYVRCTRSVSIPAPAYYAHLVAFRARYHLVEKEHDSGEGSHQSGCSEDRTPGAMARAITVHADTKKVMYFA
UniProt Q9VCU9: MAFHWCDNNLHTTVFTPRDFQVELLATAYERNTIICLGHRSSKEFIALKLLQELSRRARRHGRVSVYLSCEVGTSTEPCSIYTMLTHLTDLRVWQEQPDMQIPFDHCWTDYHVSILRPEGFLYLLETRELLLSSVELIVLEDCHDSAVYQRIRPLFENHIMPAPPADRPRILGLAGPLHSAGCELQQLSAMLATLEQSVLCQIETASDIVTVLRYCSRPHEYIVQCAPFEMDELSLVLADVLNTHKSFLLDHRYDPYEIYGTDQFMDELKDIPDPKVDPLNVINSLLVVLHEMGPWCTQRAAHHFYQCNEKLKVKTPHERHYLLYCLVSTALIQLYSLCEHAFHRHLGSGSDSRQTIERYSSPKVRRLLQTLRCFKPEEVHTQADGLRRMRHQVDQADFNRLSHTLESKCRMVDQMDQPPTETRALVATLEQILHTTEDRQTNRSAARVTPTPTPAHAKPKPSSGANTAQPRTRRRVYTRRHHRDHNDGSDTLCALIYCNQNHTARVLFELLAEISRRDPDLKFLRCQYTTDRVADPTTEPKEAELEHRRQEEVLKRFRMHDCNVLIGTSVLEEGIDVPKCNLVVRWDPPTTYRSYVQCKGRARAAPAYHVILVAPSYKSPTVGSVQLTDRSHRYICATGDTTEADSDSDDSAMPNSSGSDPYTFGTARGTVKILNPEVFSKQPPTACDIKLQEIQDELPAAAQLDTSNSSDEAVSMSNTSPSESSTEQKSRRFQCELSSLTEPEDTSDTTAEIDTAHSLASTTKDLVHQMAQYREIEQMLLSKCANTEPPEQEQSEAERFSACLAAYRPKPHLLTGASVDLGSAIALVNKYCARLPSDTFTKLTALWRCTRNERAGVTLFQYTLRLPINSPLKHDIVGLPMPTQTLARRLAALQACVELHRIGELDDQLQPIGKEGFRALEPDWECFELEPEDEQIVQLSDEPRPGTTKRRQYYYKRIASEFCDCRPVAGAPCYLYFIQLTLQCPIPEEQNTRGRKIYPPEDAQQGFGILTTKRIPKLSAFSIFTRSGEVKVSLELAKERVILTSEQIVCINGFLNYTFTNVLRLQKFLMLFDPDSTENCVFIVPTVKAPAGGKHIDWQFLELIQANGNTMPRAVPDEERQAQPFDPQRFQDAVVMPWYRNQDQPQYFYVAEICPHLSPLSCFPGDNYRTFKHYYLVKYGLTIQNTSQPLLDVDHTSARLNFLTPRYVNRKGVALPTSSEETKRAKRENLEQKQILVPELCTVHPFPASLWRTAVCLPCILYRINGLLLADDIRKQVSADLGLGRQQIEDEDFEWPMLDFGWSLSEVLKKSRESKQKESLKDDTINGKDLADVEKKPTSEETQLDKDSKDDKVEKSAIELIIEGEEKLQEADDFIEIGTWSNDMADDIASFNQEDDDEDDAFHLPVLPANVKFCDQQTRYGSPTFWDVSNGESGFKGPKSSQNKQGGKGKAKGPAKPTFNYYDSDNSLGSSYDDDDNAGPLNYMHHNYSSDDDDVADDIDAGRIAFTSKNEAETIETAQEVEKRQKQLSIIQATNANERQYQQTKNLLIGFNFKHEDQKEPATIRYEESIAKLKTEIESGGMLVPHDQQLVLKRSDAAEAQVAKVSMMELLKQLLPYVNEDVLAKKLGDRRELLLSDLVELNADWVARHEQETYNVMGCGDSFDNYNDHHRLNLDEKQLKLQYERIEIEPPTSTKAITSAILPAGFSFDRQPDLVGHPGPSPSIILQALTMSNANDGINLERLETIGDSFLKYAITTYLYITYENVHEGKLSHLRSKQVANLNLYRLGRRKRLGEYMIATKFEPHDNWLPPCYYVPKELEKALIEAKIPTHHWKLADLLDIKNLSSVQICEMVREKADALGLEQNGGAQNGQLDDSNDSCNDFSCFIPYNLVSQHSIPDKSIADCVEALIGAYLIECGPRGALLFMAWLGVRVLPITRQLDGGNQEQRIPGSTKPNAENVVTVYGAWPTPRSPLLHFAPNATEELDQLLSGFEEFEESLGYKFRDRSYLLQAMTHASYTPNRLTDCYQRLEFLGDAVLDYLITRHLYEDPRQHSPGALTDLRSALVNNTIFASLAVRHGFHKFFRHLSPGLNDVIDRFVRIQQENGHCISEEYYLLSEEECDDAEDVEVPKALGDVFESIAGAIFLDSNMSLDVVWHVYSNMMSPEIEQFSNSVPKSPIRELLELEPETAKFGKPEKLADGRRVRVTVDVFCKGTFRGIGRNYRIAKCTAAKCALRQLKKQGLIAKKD

Results are given in words; binding and its absence hold for the method and conditions named. Binding seen in cells or lysates may run through a third protein. Some binding calls cover weakened binding; strength is not graded here. Sequences can lack the tags named with a protein.

Experiment [1] addresses T1, full-length myc-tagged Loquacious (Drosophila) (UniProt Q9VJY9).
T1 sequence: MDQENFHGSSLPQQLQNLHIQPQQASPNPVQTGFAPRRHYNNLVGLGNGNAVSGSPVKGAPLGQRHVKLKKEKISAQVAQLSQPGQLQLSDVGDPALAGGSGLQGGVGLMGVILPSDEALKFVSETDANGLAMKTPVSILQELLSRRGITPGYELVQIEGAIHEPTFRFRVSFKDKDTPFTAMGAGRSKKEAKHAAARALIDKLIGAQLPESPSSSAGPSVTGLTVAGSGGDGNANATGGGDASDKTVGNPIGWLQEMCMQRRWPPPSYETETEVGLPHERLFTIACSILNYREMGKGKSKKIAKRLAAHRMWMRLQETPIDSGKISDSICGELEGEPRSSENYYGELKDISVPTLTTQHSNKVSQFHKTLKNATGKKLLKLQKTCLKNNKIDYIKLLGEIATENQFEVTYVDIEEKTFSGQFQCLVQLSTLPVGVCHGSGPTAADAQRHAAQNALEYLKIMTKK
The experiment in a line: co-IP; S2 cells expressing both myc-Loqs and Flag-Dicer-1; whole cell extract in Buffer A (30 mM HEPES pH 7.4, 150 mM KOAc, 2 mM MgOAc, 5 mM DTT) with 0.1% NP-40; immunoprecipitation with anti-Flag M2 agarose (4 °C, 1 h) or with anti-myc antibody; Western blot.

In experiment [2] the target is T2, Flag-tagged Loquacious (Drosophila) (UniProt Q9VJY9).
T2 sequence: T1 sequence
As to the kind of experiment: co-IP; Flag-Loqs complex immunopurified from S2 cells with anti-Flag; Dicer-1 found by immunoblotting; data not shown.

In experiment [3] the target is AGO1 tagged with TAP (Drosophila) (UniProt Q32KD4). As to the kind of experiment: co-IP; TAP-tagged Argonaute protein and associated material from S2 cytoplasmic lysate (Buffer A, 150 mM KOAc) bound to IgG Sepharose, eluted with SDS sample buffer; Western blot with anti-Dicer-1, anti-AGO1, anti-Flag.
Experiment [4] concerns the target T3, AGO2 tagged with TAP (Drosophila) (UniProt Q9VUQ5).
T3 sequence: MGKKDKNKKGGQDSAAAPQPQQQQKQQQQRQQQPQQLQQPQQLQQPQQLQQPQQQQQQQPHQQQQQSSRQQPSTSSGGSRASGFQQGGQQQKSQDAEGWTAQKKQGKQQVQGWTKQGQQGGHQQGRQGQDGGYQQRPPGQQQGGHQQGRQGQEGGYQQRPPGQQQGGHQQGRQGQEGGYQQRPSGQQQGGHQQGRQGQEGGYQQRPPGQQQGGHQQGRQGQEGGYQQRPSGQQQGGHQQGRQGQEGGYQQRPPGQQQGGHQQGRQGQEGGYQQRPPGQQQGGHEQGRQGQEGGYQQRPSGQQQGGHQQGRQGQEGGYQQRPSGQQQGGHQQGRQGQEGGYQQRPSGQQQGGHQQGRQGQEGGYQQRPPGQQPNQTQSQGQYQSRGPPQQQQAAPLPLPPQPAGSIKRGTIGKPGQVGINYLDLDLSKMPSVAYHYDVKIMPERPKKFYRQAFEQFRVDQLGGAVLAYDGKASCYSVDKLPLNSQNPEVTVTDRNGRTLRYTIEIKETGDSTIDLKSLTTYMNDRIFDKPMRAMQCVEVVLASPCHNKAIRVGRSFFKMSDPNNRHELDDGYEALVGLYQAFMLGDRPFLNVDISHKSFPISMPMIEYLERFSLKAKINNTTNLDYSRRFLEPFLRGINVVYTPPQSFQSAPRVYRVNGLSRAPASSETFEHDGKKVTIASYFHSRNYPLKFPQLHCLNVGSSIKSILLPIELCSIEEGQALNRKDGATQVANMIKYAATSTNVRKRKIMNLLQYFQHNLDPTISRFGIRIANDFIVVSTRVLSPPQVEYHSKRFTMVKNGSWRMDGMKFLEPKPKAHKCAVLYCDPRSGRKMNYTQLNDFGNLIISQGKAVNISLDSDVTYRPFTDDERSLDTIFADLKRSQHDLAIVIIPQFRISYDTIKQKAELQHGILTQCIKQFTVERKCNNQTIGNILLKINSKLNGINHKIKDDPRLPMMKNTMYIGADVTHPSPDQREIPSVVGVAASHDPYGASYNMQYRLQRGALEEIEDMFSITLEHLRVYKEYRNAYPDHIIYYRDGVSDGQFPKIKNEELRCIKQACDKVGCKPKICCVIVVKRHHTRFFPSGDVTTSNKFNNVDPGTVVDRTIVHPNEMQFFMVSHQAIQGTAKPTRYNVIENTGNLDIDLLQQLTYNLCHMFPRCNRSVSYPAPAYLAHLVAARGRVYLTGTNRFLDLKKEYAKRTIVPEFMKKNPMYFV
The description is as above.

The target in experiment [5] is T4, recombinant Loqs fused to glutathione S-transferase (Drosophila) (UniProt Q9VJY9).
T4 sequence: T1 sequence
As to the kind of experiment: pull-down; GST-Loqs or GST bound to glutathione Sepharose 4B; 35S-labeled in vitro translated Dicer-1, treated with RNase A; Buffer A with 0.1% NP-40; extensive washing; SDS-PAGE and autoradiography; only the target purified.

Experiment [6] deals with Flag-tagged Dicer-1 (Drosophila) (UniProt Q9VCU9). As to the kind of experiment: co-IP; Flag-Dicer-1 complex purified from S2 extract with anti-Flag under a harsh, high-salt condition (800 mM KOAc); Western blot with anti-myc or anti-Dicer-2.
For experiment [7] the target is unchanged. The experiment in a line: co-IP; S2 cells expressing both myc-Loqs and Flag-Dicer-1; whole cell extract in Buffer A (30 mM HEPES pH 7.4, 150 mM KOAc, 2 mM MgOAc, 5 mM DTT) with 0.1% NP-40; immunoprecipitation with anti-Flag M2 agarose (4 °C, 1 h) or with anti-myc antibody; Western blot.

Consider “Flag-tagged Dicer-1 (from UniProt Q9VCU9 1-2249) (enzyme)”, for which the binding entry in experiment [1] is given as “binds”.

Turning to “Dicer-1 (endogenous) (from UniProt Q9VCU9 1-2249) (enzyme)”, the binding result in experiment [2] is listed as “binds”; in experiment [3] it was “binds”; in experiment [4], “no binding”.

For “35S-labeled Dicer-1 (from UniProt Q9VCU9 1-2249) (enzyme)”, in experiment [5], the binding entry is “binds”.

B1: full-length myc-tagged Loquacious (protein, UniProt Q9VJY9-1 1-465)
chain: T1 sequence
On to B1, for which the values for the binding entry in experiment [6] and in experiment [7] were “binds weakly” and “binds”, respectively.

B2: Flag-tagged Loquacious (protein, UniProt Q9VJY9-1 1-465)
chain: T1 sequence
For the molecule B2, the binding entry in experiment [3] is on record as “binds”.
